From the supplement of paper PMC9446081
Hit rate of the full screen: of about 39,000 compounds, about 220 (0.56%) showed activity. This is one part of the list.

Tested on: Escherichia coli K-12 BW25113
Assay: relative growth (OD600 normalised to plate interquartile mean) (fraction); higher = less growth inhibition, active = 0.2 or less
Details: 50 µM; LB; incubation time: overnight (16-24 h)
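Note: static incubation at 37 °C against the wild-type strain, values averaged over two biological replicates.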

**Q.** Which relative growth does the source give for `Cc1noc(C)c1S(=O)(=O)N(C)C[C@H]1Oc2c(NC(=O)C3CCOCC3)cccc2C(=O)N([C@@H](C)CO)C[C@H]1C` here?
**A.** inactive: 0.993

**Q.** `COc1ccc(S(=O)(=O)N(C)C[C@H]2OCc3cnnn3CCCC(=O)N([C@@H](C)CO)C[C@H]2C)cc1` was tested. Which relative growth did it give?
**A.** inactive: 0.996

**Q.** For `CO[C@H]1CN(C)C(=O)c2ccc(NS(=O)(=O)CC(F)(F)F)cc2OC[C@H](C)N(C(=O)NC(C)C)C[C@H]1C`, which relative growth is on record?
**A.** inactive: 1.03

**Q.** `C[C@@H]1CN([C@@H](C)CO)C(=O)Cc2cc(NC(=O)CCCCCC(=O)Nc3ccccc3N)ccc2O[C@@H]1CN(C)C(=O)Nc1ccccc1` was tested. Which relative growth did it give?
**A.** inactive: 0.986

**Q.** How did the relative growth turn out when `CC(C)NC(=O)N(C)C[C@H]1Oc2ccc(NC(=O)CCN3CCOCC3)cc2CC(=O)N([C@@H](C)CO)C[C@@H]1C` was run?
**A.** inactive: 0.906

**Q.** Which relative growth does the source give for `Cc1noc(C)c1NC(=O)N(C)C[C@H]1Oc2ncc(C#CCC(C)C)cc2C(=O)N([C@@H](C)CO)C[C@@H]1C` here?
**A.** inactive: 0.981

**Q.** How did the relative growth turn out when `C[C@H](CO)N1C[C@H](C)[C@@H](CN(C)Cc2ccncc2)OCCCC[C@H](C)Oc2ccc(NS(=O)(=O)c3ccc(Cl)cc3)cc2C1=O` was run?
**A.** inactive: 0.999

**Q.** With `C[C@H]1CCCCO[C@@H](CN(C)Cc2ccccc2)[C@@H](C)CN([C@@H](C)CO)C(=O)c2cc(NC(=O)CCC(F)(F)F)ccc2O1` as the compound, how does the relative growth read?
**A.** inactive: 0.999

**Q.** For `Cc1ccc(S(=O)(=O)Nc2ccc3c(c2)C(=O)N([C@H](C)CO)C[C@@H](C)[C@@H](CN(C)S(=O)(=O)c2ccccc2)O3)cc1`, which relative growth is on record?
**A.** inactive: 1.03

**Q.** `C=C/C=C/[C@H]1C(=C)CN([C@H](Cc2ccc(-n3cc(CCC(=O)NO)nn3)cc2)C(=O)OC)[C@@H]1[C@H](O)Cc1ccccc1` was tested. Which relative growth did it give?
**A.** inactive: 1

**Q.** `COc1oc(C(=O)NC2CCCCC2)c(-c2ccc(Cl)cc2)c1S(=O)(=O)c1ccc(Br)cc1` was tested. Which relative growth did it give?
**A.** inactive: 1.02

**Q.** With `COC(=O)CCCCCCC(=O)Nc1ccc([C@H]2O[C@@H](CSc3nc4ccccc4s3)C[C@H](c3ccccc3)O2)cc1` as the compound, how does the relative growth read?
**A.** inactive: 1.01

**Q.** Which relative growth does the source give for `COc1ccc(S(=O)(=O)N(C)C[C@H]2Oc3ccc(NS(=O)(=O)c4ccc(C)cc4)cc3CC(=O)N([C@@H](C)CO)C[C@H]2C)cc1` here?
**A.** inactive: 1

**Q.** How did the relative growth turn out when `C[C@H](CO)N1C[C@H](C)[C@H](CN(C)CC2CC2)Oc2ccc(NS(=O)(=O)c3cccs3)cc2C1=O` was run?
**A.** inactive: 0.975

**Q.** How did the relative growth turn out when `C[C@H]1CCCCO[C@H](CN(C)Cc2ccc(Cl)c(Cl)c2)[C@@H](C)CN([C@@H](C)CO)C(=O)c2cc(NC(=O)c3ccccc3)ccc2O1` was run?
**A.** inactive: 0.997

**Q.** `Cc1ccc(S(=O)(=O)N(C)C[C@@H]2OCCCC[C@H](C)Oc3ccc(NC(=O)Nc4cccc5ccccc45)cc3C(=O)N([C@H](C)CO)C[C@H]2C)cc1` was tested. Which relative growth did it give?
**A.** inactive: 1.01

**Q.** With `C[C@H]1CN([C@@H](C)CO)C(=O)c2cc(NC(=O)C3CCCCC3)ccc2O[C@@H]1CN(C)Cc1ccc(Cl)c(Cl)c1` as the compound, how does the relative growth read?
**A.** inactive: 0.993

**Q.** `Cc1ccc(S(=O)(=O)Nc2ccc3c(c2)C(=O)N([C@@H](C)CO)C[C@@H](C)[C@H](CN(C)C(=O)Nc2cccc4ccccc24)OCCCC[C@@H](C)O3)cc1` was tested. Which relative growth did it give?
**A.** inactive: 1.02

**Q.** For `C[C@H](CO)N1C[C@H](C)[C@@H](CN(C)Cc2ccc3c(c2)OCO3)Oc2c(NS(=O)(=O)c3cn(C)cn3)cccc2C1=O`, which relative growth is on record?
**A.** inactive: 0.974

**Q.** For `CN(C)CC(=O)N[C@@H]1CC[C@@H](CCNC(=O)C2CC2)O[C@H]1CO`, which relative growth is on record?
**A.** inactive: 1.03

**Q.** With `C[C@@H]1CN([C@H](C)CO)C(=O)CCCn2cc(nn2)CO[C@@H]1CN(C)S(C)(=O)=O` as the compound, how does the relative growth read?
**A.** inactive: 1.02

**Q.** For `COc1ccc(S(=O)(=O)N(C)C[C@@H]2Oc3ccc(NC(=O)CCN4CCOCC4)cc3CC(=O)N([C@@H](C)CO)C[C@@H]2C)cc1`, which relative growth is on record?
**A.** inactive: 1.03

**Q.** For `C[C@H](CO)N1C[C@H](C)[C@@H](CN(C)C(=O)Nc2ccc(F)cc2)Oc2c(NC(=O)Nc3ccc(C(F)(F)F)cc3)cccc2C1=O`, which relative growth is on record?
**A.** inactive: 0.958

**Q.** For `C[C@@H]1CN([C@H](C)CO)C(=O)c2cc(NC(=O)C3CC3)ccc2O[C@H]1CN(C)S(=O)(=O)c1ccc(F)cc1`, which relative growth is on record?
**A.** inactive: 0.971

**Q.** How did the relative growth turn out when `CN(C)CCCN1c2ccccc2CCc2ccccc21.Cl` was run?
**A.** inactive: 0.907

**Q.** With `COCC#Cc1ccc2c(c1)O[C@H](CN(C)S(=O)(=O)c1ccc(C)cc1)[C@@H](C)CN([C@H](C)CO)S2(=O)=O` as the compound, how does the relative growth read?
**A.** inactive: 0.993

**Q.** `O=C(C[C@@H]1C=C[C@@H](NC(=O)Nc2ccc3c(c2)OCO3)[C@@H](CO)O1)NCCCN1CCOCC1` was tested. Which relative growth did it give?
**A.** inactive: 1.01

**Q.** How did the relative growth turn out when `C[C@@H]1CCCCO[C@@H](CN(C)C(=O)c2ccccc2)[C@H](C)CN([C@@H](C)CO)C(=O)c2cc(NC(=O)Cc3ccccc3)ccc2O1` was run?
**A.** inactive: 1.01

**Q.** With `COc1cccc(S(=O)(=O)N(C)C[C@H]2Oc3cc(C#CCC(C)C)ccc3S(=O)(=O)N([C@@H](C)CO)C[C@@H]2C)c1` as the compound, how does the relative growth read?
**A.** inactive: 0.983

**Q.** How did the relative growth turn out when `CC(C)NC(=O)Nc1ccc2c(c1)C(=O)N([C@H](C)CO)C[C@H](C)[C@H](CN(C)C(=O)C1CCCCC1)OCCCC[C@H](C)O2` was run?
**A.** inactive: 0.991

**Q.** Which relative growth does the source give for `NCc1cn(Cc2ccc(Cl)c(Cl)c2)cn1` here?
**A.** inactive: 0.998

**Q.** For `C[C@H]1CN([C@@H](C)CO)C(=O)c2cc(-c3ccc(C#N)cc3)cnc2O[C@@H]1CN(C)C(=O)Nc1ccc(C(F)(F)F)cc1`, which relative growth is on record?
**A.** inactive: 1.01

**Q.** For `C[C@H]1CN([C@@H](C)CO)C(=O)c2cc(NS(C)(=O)=O)ccc2O[C@H]1CN(C)C(=O)Nc1ccc2c(c1)OCO2`, which relative growth is on record?
**A.** inactive: 0.994

**Q.** With `C[C@H]1CN([C@@H](C)CO)C(=O)Cc2cc(NS(C)(=O)=O)ccc2O[C@H]1CN(C)C` as the compound, how does the relative growth read?
**A.** inactive: 0.996

**Q.** `c1cncc(-c2nc3ccc4ccccc4c3c3c2CCCC3)c1` was tested. Which relative growth did it give?
**A.** inactive: 1.03

**Q.** With `Cc1ccc(C(=O)N(CC(N)=O)CC(N)=O)cc1` as the compound, how does the relative growth read?
**A.** inactive: 1.01

**Q.** Which relative growth does the source give for `CC(C)NC(=O)Nc1ccc2c(c1)C(=O)N([C@H](C)CO)C[C@H](C)[C@@H](CN(C)C(=O)Nc1ccccc1)OCCCC[C@H](C)O2` here?
**A.** inactive: 0.983

**Q.** Which relative growth does the source give for `C[C@H](CO)N1C[C@H](C)[C@H](CN(C)Cc2ccc(Cl)c(Cl)c2)Oc2ccc(NC(=O)Cc3ccccc3)cc2C1=O` here?
**A.** inactive: 0.996

**Q.** With `Cc1ccc(S(=O)(=O)Oc2ccc(/N=N/c3ccc(-c4ccc(/N=N/c5c(O)ccc6cc(S(=O)(=O)O)cc(S(=O)(=O)O)c56)c(C)c4)cc3C)cc2)cc1` as the compound, how does the relative growth read?
**A.** inactive: 0.992

**Q.** Which relative growth does the source give for `O=C(C[C@@H]1CC[C@H]2[C@@H](COC[C@@H](O)CN2C(=O)c2ccc3c(c2)OCO3)O1)NCCN1CCCCC1` here?
**A.** inactive: 0.993

**Q.** For `COc1ccc(S(=O)(=O)N(C)C[C@@H]2OCCCC[C@@H](C)Oc3ccc(NS(=O)(=O)c4cn(C)cn4)cc3C(=O)N([C@H](C)CO)C[C@H]2C)cc1`, which relative growth is on record?
**A.** inactive: 0.99

**Q.** For `C[C@H]1CN([C@@H](C)CO)C(=O)c2cc(NC(=O)CCCN(C)C)ccc2O[C@H]1CN(C)C(=O)Nc1ccc2c(c1)OCO2`, which relative growth is on record?
**A.** inactive: 0.986

**Q.** How did the relative growth turn out when `C[C@H](CO)N1C[C@H](C)[C@H](CN(C)S(=O)(=O)c2cccs2)Oc2ccc(NC(=O)C3CC3)cc2C1=O` was run?
**A.** inactive: 0.987

**Q.** `C[C@@H]1CN([C@H](C)CO)C(=O)c2cc(-c3ccncc3)cnc2O[C@H]1CN(C)C(=O)Nc1ccc2c(c1)OCO2` was tested. Which relative growth did it give?
**A.** inactive: 0.972

**Q.** With `C[C@H](CO)N1C[C@H](C)[C@H](CN(C)C(=O)Nc2ccc3c(c2)OCO3)Oc2ccc(NC(=O)C3CC3)cc2CC1=O` as the compound, how does the relative growth read?
**A.** inactive: 0.989

**Q.** For `COc1ccc(S(=O)(=O)N(C)C[C@@H]2Oc3ccc(NC(=O)Nc4ccc(Cl)c(Cl)c4)cc3CC(=O)N([C@@H](C)CO)C[C@@H]2C)cc1Cl`, which relative growth is on record?
**A.** inactive: 1.03

**Q.** Which relative growth does the source give for `CC(C)=CCC/C(C)=C/C=C/C(C)=C/C=C/C(C)=C/C=C/C=C(C)/C=C/C=C(C)/C=C/C=C(\C)CCC=C(C)C` here?
**A.** inactive: 0.966

**Q.** `Cc1c(C)c2ccc(O[C@@H]3O[C@H](CO)[C@H](O)[C@H](O)[C@H]3O)cc2oc1=O` was tested. Which relative growth did it give?
**A.** inactive: 1.01

**Q.** For `C[C@H](CO)N1C[C@H](C)[C@@H](CN(C)C(=O)Nc2ccc3c(c2)OCO3)Oc2c(NC(=O)c3ccc(-c4nccs4)cc3)cccc2C1=O`, which relative growth is on record?
**A.** inactive: 1.01

**Q.** For `COc1ccccc1S(=O)(=O)N[C@H]1CC[C@H](CCNC(=O)C2CCOCC2)O[C@H]1CO`, which relative growth is on record?
**A.** inactive: 1.01

**Q.** With `COc1ccc(S(=O)(=O)Nc2cccc3c2O[C@@H](CN(C)Cc2ccncc2)[C@H](C)CN([C@H](C)CO)C3=O)cc1` as the compound, how does the relative growth read?
**A.** inactive: 0.95

**Q.** `Cc1cc(C)n(-c2ccc(=O)n(CC(=O)N3CCN(S(=O)(=O)c4ccc(F)cc4)CC3)n2)n1` was tested. Which relative growth did it give?
**A.** inactive: 1.01

**Q.** For `COc1ccccc1S(=O)(=O)N[C@H]1CC[C@H](CCNC(=O)C2CC2)O[C@H]1CO`, which relative growth is on record?
**A.** inactive: 1

**Q.** For `O=C(NCCN1CCOCC1)[C@]1(Cc2ccccc2)N=C(c2ccc(OCCCO)cc2)O[C@@H]1c1ccccc1`, which relative growth is on record?
**A.** inactive: 1.01

**Q.** `C[N+](C)(C)CCCC[C@@H]1NC(=O)[C@H]2C[C@@H](C(=O)NCCCCCNC(=O)CS)[C@@H](c3cccc(OCCO)c3)N2C1=O` was tested. Which relative growth did it give?
**A.** inactive: 1.01

**Q.** For `COc1ccc([Si](C)(C)[C@@H]2[C@@H](CC(=O)N(CCO)Cc3ccccc3)O[C@]3(C(=O)N(Cc4cccc(N5CCCCC5=O)c4)c4ccccc43)[C@H]2C)cc1`, which relative growth is on record?
**A.** inactive: 1.02

**Q.** `C[C@@H]1CN([C@@H](C)CO)C(=O)c2cc(NS(=O)(=O)c3cn(C)cn3)ccc2O[C@H]1CN(C)S(C)(=O)=O` was tested. Which relative growth did it give?
**A.** inactive: 1.02

**Q.** `C[C@@H]1CN([C@@H](C)CO)C(=O)c2cc(-c3cncnc3)cnc2O[C@@H]1CN(C)C(=O)CN1CCOCC1` was tested. Which relative growth did it give?
**A.** inactive: 0.995

**Q.** Which relative growth does the source give for `C[C@H]1CN([C@@H](C)CO)S(=O)(=O)c2ccc(C#Cc3ccncc3)cc2O[C@H]1CN(C)C(=O)C1CCC1` here?
**A.** inactive: 0.986
